# From publication PMC5540273 (PLoS ONE, 2017)
# For some of these results: What follows is the remainder of the data, with few or none of the strong results. The entries are a selection whose mix differs from that of the whole data set.
# Tests used:
# Settings in all cases: concentration: 1 μM,replicates: in singlicate; n = 1
# MAP4K5 = tested on: MAP4K5
# MAPKAPK2 = tested on: MAPKAPK2
# MAPKAPK5 = tested on: MAPKAPK5
# MARK1 = tested on: MARK1
# MARK2 = tested on: MARK2
# MARK3 = tested on: MARK3
# MARK4 = tested on: MARK4
# MAST1 = tested on: MAST1
# MEK1 = tested on: T1, MEK1
# T1 construct: gene MAP2K1
# MEK2 = tested on: T2, MEK2
# T2 construct: gene MAP2K2
# 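Note: KINOMEscan kinase panel screen.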
SMILES,%Inh (MAP4K5) [%],%Inh (MAPKAPK2) [%],%Inh (MAPKAPK5) [%],%Inh (MARK1) [%],%Inh (MARK2) [%],%Inh (MARK3) [%],%Inh (MARK4) [%],%Inh (MAST1) [%],%Inh (MEK1) [%],%Inh (MEK2) [%]
CS(=O)(=O)c1ccccc1-c1nc(-c2ccc(F)cc2)c(-c2ccncc2)[nH]1 [SB-213663],1,0,0,0,48,0,0,24,0,0
O=C1NC(=O)C(c2ccc(Cl)cc2)=C1Nc1ccc(O)c(Cl)c1 [SB-405367],0,12,0,8,14,0,0,34,0,20
Cc1ccc(C)c(Oc2nccc(-c3c(-c4ccc(F)cc4)ncn3C3CCNCC3)n2)c1.O=C(O)C(F)(F)F.O=C(O)C(F)(F)F.O=C(O)C(F)(F)F [SB-284852],100,0,0,3,0,23,36,0,4,39
O=C1NC(=O)C(c2ccccc2)=C1Nc1ccc(Cl)c(C(=O)O)c1 [SB-390532],0,0,0,0,0,3,0,9,0,0
Cc1cc(C)cc(Oc2nccc(-c3c(-c4ccc(F)cc4)ncn3C3CCNCC3)n2)c1.O=C(O)C(F)(F)F.O=C(O)C(F)(F)F.O=C(O)C(F)(F)F [SB-284851],36,5,0,0,0,49,33,19,0,23
O=C1NC(=O)C(c2ccc(Cl)cc2)=C1Nc1cccc(C(=O)O)c1 [SB-360737],0,10,0,0,0,0,0,9,28,0
O=C1NC(=O)c2c1c(-c1ccccc1)cc1[nH]c3ccc(O)cc3c21,55,0,0,56,27,47,54,0,61,59
O=C1NC(=O)C(c2ccc(Cl)cc2)=C1Nc1ccccc1 [SB-317661],0,0,22,16,0,8,23,4,21,45
CSc1ccc(NC2=C(c3cccc(Cl)c3)C(=O)NC2=O)cc1 [SB-341528],0,12,5,12,25,35,0,7,0,6
O=C(O)c1ccc(-c2nc(-c3ccc(F)cc3)c(-c3ccncc3)[nH]2)cc1 [SB-202620],12,15,0,26,22,15,36,64,25,48
O=C1NC(=O)C(c2ccccc2)=C1Nc1cc(Cl)c(O)c(Cl)c1 [SB-390530],10,1,0,0,0,36,0,0,3,0
COc1ccc(C2=C(Nc3cccc(Cl)c3)C(=O)NC2=O)cc1 [SB-326892],7,0,0,0,0,11,21,0,0,13
O=C1NC(=O)C(c2ccc(Cl)cc2)=C1Nc1cccc(O)c1 [SB-333613],27,2,0,11,16,0,21,41,16,10
O=C1NC(=O)C(c2ccccc2Cl)=C1Nc1cccc(C(=O)O)c1 [SB-390526],0,36,0,0,0,0,0,0,0,7
COc1cccc(C2=C(Nc3ccc(SC)cc3)C(=O)NC2=O)c1 [SB-331032],0,0,5,0,24,0,8,32,23,22
O=C1NC(=O)C(c2ccccc2Cl)=C1Nc1ccccc1 [SB-376715],9,8,0,35,20,0,12,0,34,13
